We go through 17 compounds from US11618753B2 (priority 2018, dated 2023).

Structures are written as SMILES. Counter-ions that a name gives are not always drawn.

By IC50 is commonly meant the concentration needed to halve the response being measured.

This test relates to MLKL phosphorylation, HT29-L23 human colorectal adenocarcinoma cells. Kind of test: cells. The following applies: read-out: pMLKL HCS Cell Assay (IC50, uM).
Regarding `COc1ncc(-c2cc(CN3CCC3)c3c(N)ncnn23)cc1C(=O)N[C@@H]1CN(C(=O)[C@@](C)(O)C(F)(F)F)C[C@@H]1F` [Example 1554, 5-{4-amino-5-[(azetidin-1-yl)methyl]pyrrolo[2,1-f][1,2,4]triazin-7-yl}-N-[(3R,4S)-4-fluoro-1-[(2R)-3,3,3-trifluoro-2-hydroxy-2-methylpropanoyl]pyrrolidin-3-yl]-2-methoxypyridine-3-carboxamide], the IC50 came out at 0.0014 µM. Turning to `CC(O)(CC(=O)N1C[C@H](F)[C@H](NC(=O)c2cc(-c3cc(C(F)(F)F)c4c(N)ncnn34)ccc2OC(F)(F)F)C1)C(F)(F)F` (stereo partly drawn) [Example 1062, 5-[4-amino-5-(trifluoromethyl)pyrrolo[2,1-f][1,2,4]triazin-7-yl]-N-[(3R,4S)-4-fluoro-1-(4,4,4-trifluoro-3-hydroxy-3-methylbutanoyl)pyrrolidin-3-yl]-2-(trifluoromethoxy)benzamide], the IC50 worked out at 0.098 µM. On to `Cc1cc(F)c(-c2cc(CN3CCC(F)(F)CC3)c3c(N)ncnn23)cc1C(=O)N[C@@H]1CN(C(=O)[C@@](C)(O)C(F)(F)F)C[C@@H]1F` [Example 1658, 5-{4-amino-5-[(4,4-difIuoropiperidin-1-yl)methyl]pyrrolo[2,1-f][1,2,4]triazin-7-yl}-4-fluoro-N-[(3R,4S)-4-fluoro-1-[(2R)-3,3,3-trifluoro-2-hydroxy-2-methylpropanoyl]pyrrolidin-3-yl]-2-methylbenzamide], for which the IC50 was 0.0012 µM.

As to `COc1ncc(-c2cc(C(F)(F)F)c3c(N)ncnn23)cc1C(=O)N[C@@H]1CN(S(=O)(=O)c2cccnc2)C[C@@H]1F` [Example 506, 5-[4-amino-5-(trifluoromethyl)pyrrolo[2,1-f][1,2,4]triazin-7-yl]-N-[(3R,4S)-4-fluoro-1-(pyridine-3-sulfonyl)pyrrolidin-3-yl]-2-methoxypyridine-3-carboxamide], the IC50 came out at 0.094 µM. `COC(c1ccc(F)cc1)C(C)(O)CNC(=O)c1cc(-c2cc(C(F)(F)F)c3c(N)ncnn23)cnc1C` (centres unmarked) [Example 1752, 5-(4-amino-5-(trifluoromethyl)pyrrolo[2,1-f][1,2,4]triazin-7-yl)-N-(3-(4-fluorophenyl)-2-hydroxy-3-methoxy-2-methylpropyl)-2-methylnicotinamide]: the IC50 amounted to 0.0027 µM. The same measure for `CC(C)(C(=O)N1C[C@H](F)[C@H](NC(=O)c2cc(F)cc(-c3cc(C(F)(F)F)c4c(N)ncnn34)c2)C1)C(F)(F)F` [Example 598, 3-[4-amino-5-(trifluoromethyl)pyrrolo[2,1-f][1,2,4]triazin-7-yl]-5-fluoro-N-[(3R,4S)-4-fluoro-1-(3,3,3-trifluoro-2,2-dimethylpropanoyl)pyrrolidin-3-yl]benzamide]: 0.028 µM; for `CC(C)CC(=O)N1C[C@H](F)[C@H](NC(=O)c2cc(-c3cc(C(F)(F)F)c4c(N)ncnn34)cc(F)c2CF)C1` [Example 625, 5-[4-amino-5-(trifluoromethyl)pyrrolo[2,1-f][1,2,4]triazin-7-yl]-3-fluoro-N-[(3R,4S)-4-fluoro-1-(3-methylbutanoyl)pyrrolidin-3-yl]-2-(fluoromethyl)benzamide]: 0.0018 µM.

For the compound `COc1ncc(-c2cc(COC(C)C)c3c(N)ncnn23)cc1C(=O)N[C@@H]1CN(C(=O)C2CC(F)(F)C2)C[C@@H]1F` [Example 491, 5-{4-amino-5-[(propan-2-yloxy)methyl]pyrrolo[2,1-f][1,2,4]triazin-7-yl}-N-[(3R,4S)-1-(3,3-difluorocyclobutanecarbonyl)-4-fluoropyrrolidin-3-yl]-2-methoxypyridine-3-carboxamide], the 50% inhibitory concentration (IC50) worked out at 0.0052 µM.

In the case of `COc1cc(-c2cc(C(F)(F)F)c3c(N)ncnn23)cc(C(=O)N[C@@H]2CN(C(=O)CC(C)C(F)(F)F)C[C@@H]2F)c1OC` (stereo partly drawn) [Example 591, 5-[4-amino-5-(trifluoromethyl)pyrrolo[2,1-f][1,2,4]triazin-7-yl]-N-[(3R,4S)-4-fluoro-1-(4,4,4-trifluoro-3-methylbutanoyl)pyrrolidin-3-yl]-2,3-dimethoxybenzamide], the IC50 came to 0.237 µM. Regarding `Nc1ncnn2c(-c3cc(C(=O)N[C@@H]4CN(C(=O)C5CCC(F)(F)C5)C[C@@H]4F)c(F)cc3Cl)cc(C(F)(F)F)c12` (stereo partly drawn) [Example 523, 5-[4-amino-5-(trifluoromethyl)pyrrolo[2,1-f][1,2,4]triazin-7-yl]-4-chloro-N-[(3R,4S)-1-(3,3-difluorocyclopentanecarbonyl)-4-fluoropyrrolidin-3-yl]-2-fluorobenzamide], the IC50 came to 0.02 µM. Next, `Nc1ncnn2c(-c3ccc(CF)c(C(=O)N[C@@H]4CN(C(=O)c5ccccc5F)C[C@@H]4F)c3)cc(C(F)(F)F)c12` [Example 913, 5-[4-amino-5-(trifluoromethyl)pyrrolo[2,1-f][1,2,4]triazin-7-yl]-N-[(3R,4S)-4-fluoro-1-(2-fluorobenzoyl)pyrrolidin-3-yl]-2-(fluoromethyl)benzamide]: 0.0028 µM; `COc1ncc(-c2cc(C(F)(F)F)c3c(N)ncnn23)cc1C(=O)NCCN(C)c1ccccc1` [Example 143, 5-[4-amino-5-(trifluoromethyl)pyrrolo[2,1-f][1,2,4]triazin-7-yl]-2-methoxy-N-{2-[methyl(phenyl)amino]ethyl}pyridine-3-carboxamide]: 0.311 µM. Take `COc1ncc(-c2cc(C(F)(F)F)c3c(N)ncnn23)cc1C(=O)NCCC(O)CC(C)C` (centres unmarked) [Example 1767, 5-(4-amino-5-(trifluoromethyl)pyrrolo[2,1-f][1,2,4]triazin-7-yl)-N-(3-hydroxy-5-methylhexyl)-2-methoxynicotinamide]: the IC50 worked out at 0.047 µM. For `CC(C(=O)N1C[C@H](F)[C@H](NC(=O)c2cc(-c3cc(C(F)(F)F)c4c(N)ncnn34)ccc2Cl)C1)C(F)(F)F` (stereo partly drawn) [Example 940, 5-[4-amino-5-(trifluoromethyl)pyrrolo[2,1-f][1,2,4]triazin-7-yl]-2-chloro-N-[(3R,4S)-4-fluoro-1-(3,3,3-trifluoro-2-methylpropanoyl)pyrrolidin-3-yl]benzamide], the IC50 worked out at 0.003 µM.

Take `COc1ncc(-c2cc(C(F)(F)F)c3c(N)ncnn23)cc1C(=O)Nc1cnn(CCc2ccccc2)c1` [Example 1786, 5-(4-amino-5-(trifluoromethyl)pyrrolo[2,1-f][1,2,4]triazin-7-yl)-2-methoxy-N-(1-phenethyl-1H-pyrazol-4-yl)nicotinamide]: the IC50 is 0.0096 µM. As to `C[C@@](O)(C(=O)N1C[C@H](F)[C@H](NC(=O)c2ccc(F)c(-c3cc(C(F)(F)F)c4c(N)ncnn34)c2)C1)C(F)(F)F` [Example 426, 3-[4-amino-5-(trifluoromethyl)pyrrolo[2,1-f][1,2,4]triazin-7-yl]-4-fluoro-N-[(3R,4S)-4-fluoro-1-[(2R)-3,3,3-trifluoro-2-hydroxy-2-methylpropanoyl]pyrrolidin-3-yl] benzamide, TFA], the IC50 was 0.0074 µM. In the case of `Nc1ncnn2c(-c3cc(F)c(CF)c(C(=O)N[C@@H]4CN(C(=O)CC(F)(F)F)C[C@@H]4F)c3)cc(C(F)(F)F)c12` [Example 624, 5-[4-amino-5-(trifluoromethyl)pyrrolo[2,1-f][1,2,4]triazin-7-yl]-3-fluoro-N-[(3R,4S)-4-fluoro-1-(3,3,3-trifluoropropanoyl)pyrrolidin-3-yl]-2-(fluoromethyl)benzamide], the IC50 turned out to be 0.01 µM.
